# Assay results: the RNAGym collection of RNA variant scans (doi:10.1073/pnas.2313332121)
# Variants at the floor of the assay are shown more often than the library holds them.
# B1: TPR 5TU (parent)
# chain: GGAUCUUCUCGAUCUAACAAAAAAGACAAAUCUGCCACAAAGCUUGAGAGCAUCUUCGGAUGCAGAGGCGGCAGCCUUCGGUGGCGCGAUAGCGCCAACGUUCUCAACUAUGACACGCAAAACGCGUGCUCCGUUGAAUGGAGUUUAUCAUG
# Variants of: B1
# Experiment: polymerase ribozyme fitness, log enrichment relative to wild type (log ratio); higher = more active; in vitro selection for triplet polymerase activity
# Method in brief: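 Mutant libraries were PCR-built and transcribed for each subunit of a heterodimeric triplet polymerase ribozyme and selected for one round in triplicate at −7 °C, frozen, before gel excision of extended constructs and streptavidin-bead capture. Input and output libraries were Illumina-sequenced, keeping genotypes with ≥10 input reads and ≥1 read per output. Fitness is a logarithmic ratio of genotype to wild-type enrichment, in base 2, using inverse-variance-weighted replicate averages.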
row,Variant,polymerase ribozyme fitness (log ratio)
1,GGAUCUUCUCGAUCUAACAAAAAAGACAAAUCUGCCACAAAGCUUGAGAGCAUCUUCGGGUGCAGAGGCGGCGGACUUCGGUGGCACGAUAGCGCCAACGUUCUCAACUAUGACACGCAUAACGCGUGCUCCGUGGAAUGCAGUUUAUCAUG,≤ -4.2
2,GGAUCUUCUCGAUCUAACAAAAAAGACAAAUCUGCCACAAAGCUUGAGAGCAUCUUCGGCUGCAGAGGCGGCAGCCUUCGGGGGCACGAUAGCGCCAACGUUCUCAACUAUGACACGCAAAACGCGUGCUCCGUUGAAUGGAGUUGAUCAUG,-3.33
3,GGAUCUUCUCGAUCUAACAAAAAAGACAAAUCUGCCACAAAGCUUGAGAGCAUCUUCGGGUGCAGAGGCGGCCGCCUUCGGUGGGGCGAUAGCGCCAACGUUCUCAACUAUGACACGCAAAACGCGUGAUCAGUUGAAUGGAGUUUAUCAUG,≤ -4.2
4,GGAUCUUCUCGAUCUAACAAAAAAGACAAAUCUGCCACAAAGCUUGAGAGCAUCUUCGGCUGCAGAGGCGGCAGCCUUCGGGGGCGCGAUAGCGCCAACGUUCUCAACUAUGACACGCAAAACGCGUGCUCCGUUGAAAGGAGUUUAUCAUG,≤ -4.2
5,GGAUCUUCUCGAUCUAACAAAAAAGACAAAUCUGCCACAAAGCUUGAGAGCAUCUUCGGCUGCAGAGGCGGCAGCCUUCGGUGGCGCCAUAGCGCCAACGUUCUCAACUAUGACACGCAAAACGCGUGCUCCGUUGAAUGGAGUUUAUCAUG,≤ -4.2
6,GGAUCUUCUCGAUCUAACAAAAAAGACAAAUCUGCCACAAAGCUUGAGAGCAUCUUCGGCUGCAGAGGCGGCAGCCUUCGGUGGUGUGAUAGGGCCAACGUUCUCAACUAUGACACGCAAAACGCGUGCUCCGUUGAAUGGAGUUUAUCAUG,≤ -4.2
7,GGAUCUUCUCGAUCUAACAAAAAAGACAAAUCUGCCACAAAGCUUGAGAGCAUCUUCGGCUGCAGAGGCGGCAGCCUUCAGUGGCGCGAUAGCGCCAACGUUCUCAACUAUGACACGCAAAACGCGUGCUCCGUUGAAUGGAGUUUAUCAUG,-2.27
8,GGAUCUUCUCGAUCUAACAAAAAAGACAAAUCUGCCACAAAGCUUGAGAGCAUCUUCGGCUGCAGAGGCGGCAGCCUUCGGUGACGGGAUAGCGACAACGUUCUCAACUAUGACACGCAAAACGCGUGCUCUGUUGAAUGGAGUUUAUCAUG,≤ -4.2
9,GGAUCUUCUCGAUCUAACAAAAAAGACAAAUCUGCCACAAAGCUUGAGAGCAUCUUCGGCUCCAGAGGCGGCAGCCUUCGGUGGCGCCAUAGCGCCAACGUUCUCAACUAUGACACGCAAAACGCGUGCUCCGUUGAAUGGAGUUUAUCAUG,≤ -4.2
10,GGAUCUUCUCGAUCUAACAAAAAAGACAAAUCUGCCACAAAGCUUGAGAGCAUCUUCGGCUCCAGAGGCGGCAGCCUUCGGUUGCGCGAUAGCGCCAACGUUCUCAACUAUGACACGCAAAACGCGUGCUCCAUUGAAUGGAGUUUAUCAUG,≤ -4.2
11,GGAUCUUCUCGAUCUAACAAAAAAGACAAAUCUGCCACAAAGCUUGAGAGCAUCUUCGGGUGCAGUGGCGGCAGCCUUCGGUGGCGCGAUAGUGCCAGCGUUCUCAACUAUGACACGCAAAACGCGUACUCCGUUGAAUGGAGUUUAUCAUG,≤ -4.2
12,GGAUCUUCUCGAUCUAACAAAAAAGACAAAUCUGCCACAAAGCUUGAGAGCAUCUUCGGCUGCAGAGGCGGCAGCAUUCGGUGGCGCGAUAUCGACAACGUUCUCAACUAUGACACGCAAAACGCGUGCUCCGUUGAAUGGAGUGUAUGAUG,≤ -4.2
13,GGAUCUUCUCGAUCUAACAAAAAAGACAAAUCUGCCACAAAGCUUGAGAGCAUCUUCGGCUGCAGAGCCGUCAGCCUUCGGUGGCGCGAUAGCGCCAACGUUCUCAACUAUGAGACGCAAAAUGCGUGCUCCGUUGAAUGGAGUUGAUCAUG,≤ -4.2
14,GGAUCUUCUCGAUCUAACAAAAAAGACAAAUCUGCCACAAAGCUUGAGAGCAUCUUCGGCUGCAGAGGCGGCAGCCUUCGGUGGCGCGAUAGCGCCAACGUUAUCAACUAUGACACGCAAAACGCGUGCUCCGUUGAAUGGAGUUUAUCAUG,≤ -4.2
15,GGAUCUUCUCGAUCUAACAAAAAAGACAAAUCUGCCACAAAGCUUGAGAGCAUCUUCGGGUGCAGAGGCGGCAGCCUUCGGUGGCGCGAUAGCGCCAACGUUCUCAACUAUGACACGCAAAACGCGUGCUCCGUUGAAUGGAGUUUAUCAUG,0.0111
16,GGAUCUUCUCGAUCUAACAAAAAAGACAAAUCUGCCACAAAGCUUGAGAGCAUCUUCGGCUGCAGAGGCGGCAGCCUUCGGUGGCGCGAUUGCGCCAACGUUCUCAACUAUGACACGAAAAACGCGUGCUCCGUUGAAUGGAGUUUAUCAUG,≤ -4.2
17,GGAUCUUCUCGAUCUAACAAAAAAGACAAAUCUGCCACAAAGCUUGAGAGCAUCUUCGGGUGCAGCGGCGGCAGCCUUCGGUGGCGCGAUAGCGCCAACGUUCUCAACUAUGACACGCAAAACGCGUGCUCCGUUGAAUGGAGUUUAUCAUG,≤ -4.2
18,GGAUCUUCUCGAUCUAACAAAAAAGACAAAUCUGCCACAAAGCUUGAGAGCAUCUUCGGCUGCAGAGGCGGCAGCCUUCGGUGGCGCGAUAGCGCCAACGUUCUCAACUAUGACACGCAAAACGCGUGCUCCGUUGAAUGGAGUUUAGCUUG,≤ -4.2
19,GGAUCUUCUCGAUCUAACAAAAAAGACAAAUCUGCCACAAAGCUUGAGAGCAUCUUCGGCUGCAGAGGCGGCAGUCAUCGGUGGCGCGAUAGAGCCAACGUUCUCAACUAUGACACGCAAAACGCGUGCUCCGUUGAAUGGAGUUUAUCGUG,≤ -4.2
